Assay results as given in PubChem BioAssay AID902 (National Center for Advancing Translational Sciences (NCATS), 2007).
Out of some 130,000 compounds screened, about 1,900 (1.5%) were called active. Inconclusive means that the source gave no clear call. Such entries were picked first, then a sample of the others. Calls follow the shape of the dose curve; as a rule, active = well fitted cell-killing curve with a large enough effect; inconclusive = small, poorly fitted or top-dose-only effect; inactive = no such curve, though single readings can be large or run the other way. A potency beside an inconclusive call is a rough fit, not a confirmed value.
% is scaled to controls: 0 for no effect and ±100 for the full control effect; potency is read from the fitted curve at half-maximal effect; tags tell the direction and shape of the fitted curve.

Assay: qHTS Screen for Compounds that Selectively Target Cancer Cells with p53 Mutations: Cytotoxicity of p53ts Cells at the Nonpermissive Temperature; also: nearly all actives have a fitted effect of over 55% in size
Settings: H1299-p53A138V viability at 39C, ATP luminescence, 24 h; activity change, negative = cell killing: at 46.1 µM (top of the series)
In the case of `COCC(C)Nc1ncnc2c1cnn2-c1ccc(C)c(C)c1` (configuration not stated), the Potency is reported as inconclusive: 10 µM [cytotoxic, partial curve].
With `O=C(CNC(=O)c1cccs1)c1ccc(F)cc1` the Potency was inconclusive: 15.8 µM [cytotoxic, single point].
With `O=C(Cn1cnc2onc(-c3ccc(Cl)cc3)c2c1=O)Nc1ccc(F)cc1` the Potency was inconclusive: 12.6 µM [cytotoxic, partial curve].
For `CCOC(=O)c1ccc(N2C(=O)c3n[nH]c(-c4ccco4)c3C2c2cccc(O)c2)cc1` (configuration not stated), the Potency was inconclusive: 15.8 µM [cytotoxic, single point].
With `O=C(CCCn1c(=O)c2cccn2c2ccccc21)NCc1ccccc1Br` the Potency was “inactive”.
In the case of `O=c1oc2ccccc2cc1-c1nc2ccccc2o1`, the Potency is reported as inconclusive: 31.6 µM [cytotoxic, single point].
With `Cc1ccc(Nc2sc(C(=O)c3ccccc3)c(N)c2C(N)=O)cc1` the Potency was inconclusive: 15.8 µM [cytotoxic, single point].
In the case of `CCc1ccccc1NC(=O)Cn1c(SCc2ccc(F)cc2)nc2ccncc21`, the Potency is reported as inconclusive: 10 µM [cytotoxic, partial curve, poor fit].
For `COc1ccc(-c2nc(CCNC(=O)c3ccc(Br)o3)cs2)cc1`, the Potency was inconclusive: 5.01 µM [cytotoxic, partial curve].
For `CCNC(=O)N1CCNC(=O)C1CC(=O)Nc1ccc(C(=O)OCC)cc1` (configuration not stated), the Potency was inconclusive: 12.6 µM [cytotoxic, partial curve].
With `CCCCOc1ccccc1C(=O)N(Cc1cccc(F)c1)C1CCS(=O)(=O)C1` (configuration not stated) the Potency was “inactive”.
With `O=C(CSCC(=O)NCc1ccco1)NCc1ccco1` the Potency was “inactive”.
With `CCOC(=O)CCSc1nc2c(c(C(F)(F)F)c1C#N)CCC2` the Potency was “inactive”.
For `O=C(NCC(c1cccnc1)N1CCc2ccccc21)c1ccc(F)cc1` (configuration not stated), the Potency was inconclusive: 15.8 µM [cytotoxic, partial curve].
With `CSc1nn(Cc2cccc(Cl)c2)c(N(C(C)=O)C(C)=O)c1S(=O)(=O)c1ccccc1` the Potency was active: 20 µM.
With `Cc1sc(NC(=O)CCCC(=O)O)c(C#N)c1C` the Potency was “inactive”.
For `CCCC(=O)Nc1cc(C)c2c(=O)oc3ccccc3c2n1`, the Potency was inconclusive: 25.1 µM [cytotoxic, single point].
With `Cc1ccccc1-c1noc(-c2ccc(N3CCN(C)CC3)c([N+](=O)[O-])c2)n1` the Potency was “inactive”.
In the case of `COc1ccc(S(=O)(=O)Nc2ccc(O)c3ccccc23)cc1`, the Potency is reported as inconclusive: 12.6 µM [cytotoxic, single point].
With `Cc1cc(C)c(NC(=O)C(=O)NCC(c2cccnc2)N2CCN(Cc3ccccc3)CC2)c(C)c1` (configuration not stated) the Potency was inconclusive: 31.6 µM [cytotoxic, single point].
In the case of `CCNc1nc(N)nc(Oc2ccc(C(=O)OC)cc2)n1`, the Potency is reported as inconclusive: 12.6 µM [cytotoxic, single point].
With `Cc1ccsc1CN(C(=O)COc1cccc(C)c1C)C1CCS(=O)(=O)C1` (configuration not stated) the Potency was “inactive”.
With `CCCCOC(=O)c1cccc(NC(=O)/C=C/c2ccccc2Cl)c1` the Potency was inconclusive: 5.01 µM [cytotoxic, partial curve].
With `O=C(Cn1c(SCC(=O)Nc2ccc(F)cc2)nc2ccccc21)NCc1ccccc1Cl` the activity change, negative = cell killing was inconclusive: -59.7% [cytotoxic].
For `N#Cc1c(C(F)(F)F)cc(-c2cccs2)nc1SCC(=O)Nc1cccc(C(F)(F)F)c1`, the Potency was inconclusive: 15.8 µM [cytotoxic, single point].
In the case of `C=C1C(=O)OC2CC1C(OC(C)=O)CC(C)=CCCC(C)=CCC[C@@]2(C)O` (some centres not stated), the Potency is reported as inconclusive: 31.6 µM [cytotoxic, single point].
With `O=C(CCC1N=C2c3ccccc3N=C(SCC(=O)Nc3ccc(F)cc3)N2C1=O)NCc1cccs1` (configuration not stated) the Potency was “inactive”.
In the case of `COc1ccc(-n2c(N)c(C(=O)NCC3CCCO3)c3nc4ccccc4nc32)c(OC)c1` (configuration not stated), the Potency is reported as “inactive”.
In the case of `COc1cc(C(=O)OCC(=O)c2cc(C)n(C)c2C)cc(NC(=O)c2ccco2)c1OC`, the Potency is reported as “inactive”.
For `CC(C)c1ccc(NC(=O)c2ccc3c(O)c(S(=O)(=O)c4ccccc4)c(=O)[nH]c3c2)cc1`, the Potency was active: 6.31 µM.
In the case of `COc1cc(OC)c(N(C)C(=O)c2cc3c(=O)oc4ccccc4c3s2)cc1Cl`, the Potency is reported as inconclusive: 31.6 µM [cytotoxic, single point].
For `COCCn1c(C)cc(C(=O)COC(=O)c2n[nH]c3ccccc23)c1C`, the Potency was active: 2 µM.
In the case of `Cc1ccc(CCNC(=O)c2c[nH]c3ccc(S(=O)(=O)Nc4cccc(C(F)(F)F)c4)cc3c2=O)cc1`, the Potency is reported as inconclusive: 0.251 µM [cytotoxic, partial curve].
In the case of `CCCS(=O)(=O)c1nnnn1-c1cccc(OC)c1`, the Potency is reported as inconclusive: 31.6 µM [cytotoxic, single point].
With `O=C(CC1N=C2c3ccccc3N=C(SCc3cccc(Cl)c3)N2C1=O)NCCc1ccccc1` (configuration not stated) the Potency was “inactive”.
With `Cc1ccc(S(=O)(=O)C(CNC(=O)C(=O)NCCc2ccc(Cl)cc2)c2cccs2)cc1` (configuration not stated) the Potency was “inactive”.
For `CCCCN(C)CCNC(=O)CN1C(=O)CSc2ccc(S(=O)(=O)N3CCCCC3)cc21`, the Potency was inconclusive: 2.51 µM [cytotoxic, partial curve].
With `CCOCCN1CCN(c2c(C)c(C)nc3cc(-c4cc(OC)cc(OC)c4)nn23)CC1` the Potency was inconclusive: 12.6 µM [cytotoxic, single point].
In the case of `CCOC(=O)c1[nH]c(C)c(C(=O)c2cc(F)ccc2F)c1C`, the Potency is reported as “inactive”.
For `O=C(Cn1c(=O)nc(-c2ccccc2)c2cc(Cl)ccc21)NCc1ccc(Cl)cc1`, the Potency was active: 10 µM.
For `O=C(CCS(=O)(=O)c1cc2c3c(c1)CCN3C(=O)CC2)Nc1cccc(Br)c1`, the Potency was “inactive”.
For `O=S(=O)(c1cccc2c(Cl)cccc12)N1CCCNCC1`, the Potency was active: 15.8 µM.
For `COCC(=O)Nc1nc2ccc(S(C)(=O)=O)cc2s1`, the Potency was “inactive”.
In the case of `CCOc1ccc(C(=O)Nc2cc(C)on2)cc1`, the Potency is reported as active: 3.16 µM.
In the case of `Cc1ccc(NC(=O)c2oc3ccccc3c2NC(=O)C23CC4CC(CC(C4)C2)C3)cc1`, the Potency is reported as “inactive”.
In the case of `C=C(C)COc1ccc(-c2n[nH]c(C)c2-c2ccccc2)c(O)c1`, the Potency is reported as inconclusive: 31.6 µM [cytotoxic, single point].
In the case of `CCOC(=O)c1cnc(-n2cc(C)cn2)nc1Nc1ccccc1OCC`, the Potency is reported as inconclusive: 20 µM [cytotoxic, single point].
With `O=C(Nc1cccc(C(F)(F)F)c1)C1CCN(S(=O)(=O)c2cccs2)CC1` the Potency was inconclusive: 10 µM [cytotoxic, partial curve].
In the case of `Cc1nnc(N2CCC(C(=O)NC(C)C)CC2)c2nn(-c3ccccc3)c(C)c12`, the Potency is reported as “inactive”.
For `COc1ccc(C(=O)Nc2ccc(OC)c(OC)c2)cc1`, the Potency was inconclusive: 12.6 µM [cytotoxic, partial curve].
For `Clc1ccccc1CN1CCc2nc(N3CCN(c4ncccn4)CC3)ncc2C1`, the Potency was “inactive”.
In the case of `COc1cc2c(cc1NC(=O)COc1ccc(Cl)cc1)oc1ccccc12`, the Potency is reported as inconclusive: 20 µM [cytotoxic, single point].
In the case of `O=C(CN1CCOCC1)Nc1ccc(-c2nc3ccccc3[nH]2)cc1`, the Potency is reported as inconclusive: 12.6 µM [cytotoxic, partial curve].
In the case of `Cc1cc(C)cc(NC(=O)c2cc(S(=O)(=O)N3CCCC3)ccc2F)c1`, the Potency is reported as inconclusive: 15.8 µM [cytotoxic, partial curve].
For `CCCc1nn2cc(-c3ccc(C)c(C)c3)nc2s1`, the Potency was active: 7.94 µM.
For `COc1ccc(/C=C/C(=O)Nc2ccc3nc4c(c(Nc5ccc(OC)c(OC)c5)c3c2)CCCC4)cc1`, the Potency was active: 10 µM.
For `COc1cccc(Oc2cn[nH]c2-c2ccc(OC)cc2O)c1`, the Potency was inconclusive: 20 µM [cytotoxic, single point].
In the case of `CCCc1c(OCCCOc2ccc(OCC(=O)O)cc2)ccc(C(C)=O)c1O`, the Potency is reported as “inactive”.
For `Cn1c(=O)c(-c2ccccc2)nc2cnc(Oc3ccccc3)nc21`, the Potency was “inactive”.
With `COc1c(C)cccc1C(=O)Nc1ccc(-c2nc3ccccc3s2)c(Cl)c1` the Potency was inconclusive: 15.8 µM [cytotoxic, single point].
For `O=C(CN1CCSC1=NCc1ccccc1)c1ccc(Cl)cc1`, the Potency was inconclusive: 12.6 µM [cytotoxic, partial curve, poor fit].
In the case of `COc1ccc(-c2cn3nc(N4CCCC(C(=O)NCc5ccc(Cl)cc5)C4)sc3n2)cc1` (configuration not stated), the Potency is reported as “inactive”.
In the case of `COc1ccc(NC(=O)c2cc3c(s2)-c2c(C)cccc2OC3)cc1Cl`, the Potency is reported as inconclusive: 12.6 µM [cytotoxic, partial curve].
For `CCN(CC)CCNc1nc2c(c(=O)n(C)c(=O)n2C)n1C/C=C(/C)Cl`, the Potency was inconclusive: 31.6 µM [cytotoxic, single point].
With `CN(C)CCCNc1cc(N2CCN(C3CCCCC3)CC2)c2noc3c2c1C(=O)c1ccccc1-3` the Potency was active: 20 µM.
With `Nn1c(Nc2ccccc2)nc2sc3c(c2c1=O)CCC3` the Potency was “inactive”.
For `CCc1ccc(NC(=O)CN2C(=O)c3cccc4cccc2c34)cc1`, the Potency was inconclusive: 12.6 µM [cytotoxic, single point].
In the case of `CN(C)c1ccc(N=Cc2nc(-c3ccccc3)oc2OC(=O)c2cccc(Cl)c2)cc1`, the Potency is reported as inconclusive: 11.2 µM [cytotoxic, partial curve].
In the case of `CCOc1cc(C(=O)Nc2ccc(-c3cn4cccnc4n3)cc2)cc(OCC)c1OCC`, the Potency is reported as inconclusive: 25.1 µM [cytotoxic, single point].
With `CCCN(CCC)c1ccc(C2N=C(N)Nc3nc4ccccc4n32)cc1` (configuration not stated) the Potency was inconclusive: 20 µM [cytotoxic, single point].
In the case of `CC1CCC2C(=O)N3C(CCC(C)[C@@H]3c3ccc(Br)cc3)C(=O)N2C1c1ccc(Br)cc1` (some centres not stated), the activity change, negative = cell killing is reported as inactive: -17% [at 9.22 µM].
For `CCn1c(SCC(=O)O)nnc1-c1cc2c(C)nn(-c3ccccc3)c2s1`, the Potency was inconclusive: 25.1 µM [cytotoxic, single point].
